# Measured values published in patent US20150290148A1 (priority 2006, published 2015).
# Read-outs that look alike come from different tables or passages of the source.
# Tests used:
# [1] = tested on: rat hippocampal slice cultures (RHSC)
# Protocol: All experimental animal procedures were approved by the University Institutional Animal Care and Use Committee. Neonatal rats (Sprague-Dawley) at postnatal Day 7 (P7) were decapitated and the hippocampi dissected out under sterile conditions. 400 μm transverse hippocampal slices were prepared with a Mcllwain tissue chopper and cultured on Millicell permeable membranes (0.4 μM pore size) in six well plates for 6 days at 37° C. in 5% CO2. […]
# For oxygen-glucose deprivation (OGD) experiments, a glucose free balanced salt solution (BSS) (120 mM NaCl, 5 mM KCl, 1.25 mM NaH2PO4, 2 mM MgSO4, 2 mM CaCl2, 25 mM NaHCO3, 20 mM HEPES, 25 mM sucrose; pH 7.3) was bubbled for 1 hr with 5% CO2 95% N2 at 10 L/hr. […] Neuronal damage was determined by staining slices with propidium iodide (PI; Molecular Probes, Eugene, Oreg.) and quantifying the relative fluorescence intensity (excitation 540/emission 630). […] Images were taken of the hippocampal slices prior to OGD to establish baseline fluorescence. After OGD slices were placed in normal media containing 2 μM PI and imaged again at 48 hours post-OGD using fluorescence optics with an Olympus IMT-2 microscope and a Hamamatsu camera. The total fluorescent intensity in each slice was determined using Image Pro Plus software and all values were expressed as percent change from untreated OGD. […]
# [2] = tested on: rat hippocampal slice cultures (RHSC); assay: Oxygen-glucose deprivation (OGD) in rat hippocampal slice cultures, propidium iodide uptake; type: cell-based
structure (smiles),measurement,setting,value
O=c1cc(N2CCOCC2)oc2c(-c3ccccc3)cccc12 [LY29002],effect on anti-apoptotic effect of MAP (TUNEL),"[1]; added after OGD prior to MAP treatment, 24 hrs post-OGD",disrupts the anti-apoptotic effect of MAP
CN[C@@H](C)Cc1ccccc1 [methamphetamine],PI uptake (neuronal death) vs untreated non-OGD control,[2]; 100 μM MAP added 24 hr after OGD,significant increase in neuronal death
NCCc1c[nH]c2ccc(O)cc12 [serotonin],neuroprotective response (PI uptake) 24 hrs post-OGD,"[2]; 10 nM-100 μM, immediately after OGD",moderate neuroprotective response
same,neuronal loss (PI uptake) vs untreated OGD control,"[2]; 1 mM, immediately after OGD",increased neuronal loss
NC[C@H](O)c1ccc(O)c(O)c1 [norepinephrine],neuroprotective response (PI uptake) 24 hrs post-OGD,"[2]; 10 nM-100 nM, immediately after OGD",moderate neuroprotective response
CCN1CCC[C@H]1CNC(=O)c1c(O)c(Cl)cc(Cl)c1OC [raclopride],effect of antagonist on neuroprotective effect of MAP (PI uptake),"[2]; antagonist plus 100 μM MAP immediately after 60 min OGD, 24 hrs post-OGD",significantly decreased the neuroprotective effect of MAP
same,effect on anti-apoptotic effect of MAP (TUNEL),[1],measurably decreased
same,effect on MAP induced AKT phosphorylation,AKT,significantly decreased the MAP induced phosphorylation of AKT
NCCc1ccc(O)c(O)c1 [dopamine],PI uptake vs untreated non-OGD control,[2]; 10 nM after OGD,significantly different from the untreated non-OGD control
same,PI uptake vs untreated non-OGD control,[2]; 100 nM-1 mM after OGD,"did not differ from the untreated, non-OGD control"
same,neuroprotective response (PI uptake) 24 hrs post-OGD,"[2]; all concentrations tested, 10 nM-1 mM, after 60 min OGD, listed as Dopamine",significant neuroprotective effect
same,toxicity in RHSC dose response,[2]; up to 1 mM after OGD,failed to induce toxicity
